“And” between values parts separate entries of the source, which are not always exact repeats. Identical values can stand only once. Hit rate of the full screen: of about 48,000 compounds, about 450 (0.94%) were called active. The inconclusive results got no clear call from the source; some entries with a clear call stand among them for comparison. Calls come from the whole dose curve; as a rule, active = well fitted inhibition curve with a large enough effect; inconclusive = small, poorly fitted or top-dose-only effect; inactive = no such curve, though single readings can be large or run the other way. Potencies of inconclusive entries are doubtful fits and often do not repeat.
Assay: Primary qHTS for Identification of Small Molecule Inhibitors of Huntingtin Promoter Activity; note: nearly all actives have a fitted effect of over 50% in size
Conditions: HEK293 HTT promoter firefly luciferase reporter (activity 0% = vehicle and -100% = no light), 24 h; series mostly up to 57.5 µM
From the text: Assay Provider: Russell L. Margolis M.D.
Department Neurology, Johns Hopkins University School of Medicine, Baltimore, MD
Huntington's Disease (HD) is a neurodegenerative disorder caused by a CAG repeat expansion in exon 1 of huntingtin (HTT). While there are currently no disease-modifying treatments for HD, recent efforts have focused on development of nucleotide-based therapeutics to lower HTT expression. As an alternative to siRNA or oligonucleotide methods, we hypothesized that suppression of HTT expression might be accomplished by small molecules that either (1) directly decrease HTT expression by suppressing HTT promoter activity or (2) indirectly decrease HTT expression by increasing the promoter activity of HTT-AS, the gene antisense to HTT that appears to inhibit expression of HTT.
We developed and employed a high throughput screen for modifiers of HTT and HTT-AS promoter activity using luminescent reporter HEK293 cells; of the 52,041 compounds tested, we identified 898 replicable hits. We used a rigorous stepwise approach to assess compound toxicity and the capacity of the compounds to specifically lower huntingtin protein in 5 different cell lines, including HEK293 cells, HD lymphoblastoid cells, mouse primary neurons, HD iPSCs differentiated into cortical-like neurons, and HD hESCs. We found no compounds which were able to lower huntingtin without lowering cell viability in all assays, though the potential efficacy of a few compounds at non-toxic doses could not be excluded.
SEQUENCE No. (1, 2, 3, etc.); […] (e.g., Cells, Incubation, Reagent, etc.); VALUE and DESCRIPTION.
1; Reagent; 4 uL; 2,500 Hek293 luciferase reporter cells per wells
3; Compound; 23 nL; Control inhibitor / compound library
5; Reagent; 2.5 uL; Firefly Luc reagent; Dual-Glo Luciferase Reporter Assay System (Promega)
6; Time; 10 min; room temperature incubation
7; Detection; Luminescence; FLuc
NOTES (numbers refer to sequence above)
1; High-throughput screening, measuring luminescence from a Hek293 luciferase reporter, was performed in 1,536 well white-walled tissue-culture treated plates. 2,500 cells were plated in 4 µL of Opti-MEM per well using a Multidrop Combi Reagent Dispenser (ThermoFisher).
2; Assay plates were cultured for 24 hours.
3; Control inhibitor (PTC124; final concentration of 50 uM) and compound library (at final concentrations of 460 nM - 57.5 uM) were added to the assay plate using the Kalypsis Pintool Robotic System equipped with 1536 pinheads.
4; Cells were then incubated for 24 hours at 37 degrees C prior to luminescence measurements.
5; In all cases, luminescence was measured using the Dual-Glo Luciferase Reporter Assay System (Promega) following the manufacturer's instructions.
6; Room temperature incubation.
7; Luminescence signal was obtained using the PerkinElmer ViewLux plate reader. Results were normalized to vehicle control (0% activity) and zero RLU (-100% activity).
Potency is the fitted concentration of half-maximal effect; tags give direction and shape of the fitted curve.

| Structure (SMILES) | Potency |
| --- | --- |
| COCCNC(=O)C1CCN(C(=O)c2cc3sccc3n2Cc2ccc(Cl)cc2)CC1 | inconclusive: 14.1 µM [inhibitor, partial curve, poor fit] |
| O=S(=O)(c1ccc(Cl)cc1)c1nc(-c2cccs2)oc1SCc1ccc(F)cc1 | inconclusive: 31.6 µM [inhibitor, partial curve, poor fit] |
| CCc1ccc(CNC(=O)c2cc3n(n2)CCCN(Cc2ccccc2)C3=O)cc1 | inconclusive: 22.4 µM [inhibitor, partial curve, poor fit] |
| CCCCNC(=O)CSc1nc2n[nH]c(C)c2c(=N)n1-c1cccc(Cl)c1C | inconclusive: 39.8 µM [inhibitor, single point] |
| COc1ccc(S(=O)(=O)Nc2ccc3oc4c(c3c2)CCCC4)cc1 | inconclusive: 22.4 µM [inhibitor, single point] |
| COc1cccc(NC(=O)CC(=O)Nc2ccc3nc4n(c(=O)c3c2)CCCCC4)c1 | inactive |
| CCc1ccc(NC(=O)CN(c2ccc(Cl)cc2)S(=O)(=O)c2ccsc2C(=O)OC)cc1 | inconclusive: 39.8 µM [inhibitor, partial curve, poor fit] |
| Cc1ccc(C)c(CN2C(=O)C(O)(c3c(C)[nH]c4ccccc34)c3ccccc32)c1 (stereo not given) | inconclusive: 20 µM [inhibitor, partial curve, poor fit] |
| O=C(C1CCCN(S(=O)(=O)c2cccc3nsnc23)C1)N1CCN(c2ccccc2)CC1 (stereo not given) | inconclusive: 31.6 µM [inhibitor, single point] |
| CCOc1ccccc1CNC(=O)c1ccc2c(c1)N(Cc1ccc(C)cc1)CCS2 | inconclusive: 31.6 µM [inhibitor, single point] |
| CC(=O)c1cccc(NC(=O)CSc2nc(=O)n(Cc3ccco3)c3c2CCC3)c1 | inactive |
| CCCCN(CC)C(=O)c1nn(C)c2c1CSc1ccccc1-2 | inactive |
| O=C(NCCc1ccccc1Cl)C1CCN(c2nc3ccccc3nc2C(F)(F)F)CC1 | inactive |
| CCOc1ccc(/C=C/c2nc(C#N)c(NCc3ccccc3)o2)cc1 | inconclusive: 3.98 µM [inhibitor, partial curve] |
| CCOC(=O)N1CCc2c(sc3c2C(=O)NC(c2cc(OC)c(OC)c(OC)c2)N3)C1 (stereo not given) | inconclusive: 7.94 µM [inhibitor, partial curve, poor fit] |
| CCc1ccccc1NS(=O)(=O)c1ccc2c(c1)CC(=O)N2 | inactive |
| Cc1cccc2c1N(Cc1ccccc1OCCC(C)C)C(=O)C2=O | inconclusive: 31.6 µM [inhibitor, partial curve] |
| COc1ccc2c(c1)c(=O)c(S(=O)(=O)c1ccccc1)cn2CC(=O)Nc1ccc(C)c(Cl)c1 | inconclusive: 20 µM [inhibitor, partial curve, poor fit] |
| CCOc1ccc(NC(=O)CSc2oc(-c3ccc(F)cc3)nc2S(=O)(=O)c2ccc(C)cc2)cc1 | inactive |
| Cc1ccc(CN(Cc2ccco2)C(=O)c2oc3cc(Br)ccc3c2C)cc1 | inconclusive: 25.1 µM [inhibitor, partial curve, poor fit] |

| Structure (SMILES) | Potency |
| --- | --- |
| O=C(Nc1ccc(Br)cc1F)c1cc(S(=O)(=O)NC2CCCCC2)ccc1F | inconclusive: 28.2 µM [inhibitor, single point] |
| CC1=C(C(=O)OCC2CCCCC2)C(c2ccc(Cl)cc2)CC(=O)N1 (stereo not given) | inconclusive: 31.6 µM [inhibitor, partial curve, poor fit] |
| O=C1N(Cc2ccccc2Cl)c2ccccc2C1(O)c1c[nH]c2ccccc12 (stereo not given) | inconclusive: 25.1 µM [inhibitor, single point] |
| CC(=O)c1ccc(NS(=O)(=O)c2c(C)nc3scc(C)n3c2=O)cc1 | inconclusive: 31.6 µM [inhibitor, partial curve, poor fit] |
| CSc1ncc(C(=O)Nc2ccc(C)c(Cl)c2)c(-c2ccccc2)n1 | inconclusive: 22.4 µM [inhibitor, single point] |
| COc1ccc(N(Cc2cc3cccc(C)c3[nH]c2=O)C(=O)c2cccc(Cl)c2)cc1 | inconclusive: 31.6 µM [inhibitor, single point] |
| CN(C)S(=O)(=O)c1ccc(C(=O)NCCSc2c(-c3ccccc3)[nH]c3ccccc23)cc1 | inconclusive: 15.8 µM [inhibitor, partial curve, poor fit] |
| CCOC(=O)c1c(NC(=O)c2ccc(S(=O)(=O)N(C)C3CCCCC3)cc2)sc2c1CCN(C(C)C)C2 | inconclusive: 20 µM [inhibitor, single point] |
| COc1ccc(NC(=O)CSc2nc3c(oc4ccccc43)c(=O)n2Cc2ccco2)cc1Cl | inconclusive: 22.4 µM [inhibitor, single point] |
| Cc1ccc(CCNc2ncnc3onc(-c4ccc(Cl)cc4)c23)cc1 | inconclusive: 22.4 µM [inhibitor, single point] |
| CC1CCN(S(=O)(=O)c2nnc(NC(=O)c3cccc(Cl)c3)s2)CC1 | inconclusive: 39.8 µM [inhibitor, single point] |
| COc1cc(C)c(Sc2cnc(NC(=O)c3ccc(CNC(C)C(C)C)cc3)s2)cc1C(=O)N1CCN(C(C)=O)CC1 (stereo not given) | inconclusive: 27.3 µM [inhibitor, single point] |
| Cc1cc(C)cc(NC(=O)Cn2cc(C(=O)C3CCCCC3)c3ccccc32)c1 | inactive |
| Cc1ccc2c(=O)cc(C(=O)Nc3ccc(S(=O)(=O)Nc4ncccn4)cc3)oc2c1C | inactive |
| Cc1cc(C)c(NC(=O)C2CCN(c3nn4c(=O)cc(C)nc4s3)CC2)c(C)c1 | inactive |
| COc1ccc(NCc2cccn2-c2nnc(N3CCCCC3)s2)cc1OC | active: 7.94 µM |
| Cc1ccc(NC(=O)CSc2cn(CC(=O)N3CCCC3)c3ccccc23)cc1Cl | inconclusive: 39.8 µM [inhibitor, single point] |
| CCOc1ccc(NS(=O)(=O)c2ccc3c(c2)CCCN3C(=O)C2CCC2)cc1 | inconclusive: 25.1 µM [inhibitor, single point] |
| CC(C)(C)C1CCc2oc3ccc(NS(=O)(=O)c4ccc(C(=O)O)cc4)cc3c2C1 (stereo not given) | inactive |
| COc1ccc(CCNc2ncnc3c2cnn3-c2cc(Cl)ccc2C)cc1 | inconclusive: 25.1 µM [inhibitor, single point] |

| Structure (SMILES) | Potency |
| --- | --- |
| CC1CCN(S(=O)(=O)c2ccc3c(ccc(=O)n3CC(=O)Nc3cccc(F)c3)c2)CC1 | inconclusive: 39.8 µM [inhibitor, single point] |
| Cc1ccc(NC(=O)c2cc(S(=O)(=O)NCCc3ccc(Cl)cc3)ccc2F)cc1 | inconclusive: 12.6 µM [inhibitor, partial curve, poor fit] |
| Cc1ccc(OCc2nc(-c3ccc(C(=O)NCc4ccc(OC(C)C)cc4)cc3)oc2C)cc1 | inconclusive: 2.82 µM [inhibitor, full curve] |
| CCOc1ccc(N(C)S(=O)(=O)c2ccc3[nH]cc(C(=O)NCc4ccccc4)c(=O)c3c2)cc1 | inactive |
| Cc1cc(C)cc(N2C(=O)N(Cc3cccc(F)c3)c3ccccc3S2(=O)=O)c1 | inconclusive: 25.1 µM [inhibitor, single point] |
| COc1ccc(Nc2oc(-c3ccc(COc4ccccc4C)o3)nc2C#N)cc1 | inconclusive: 14.1 µM [inhibitor, partial curve, poor fit] |
| CCCCCn1c(=O)[nH]c2cc(C(=O)N3CCN(c4cccc(C(F)(F)F)c4)CC3)ccc2c1=O | inconclusive: 10 µM [inhibitor, partial curve, poor fit] |
| C[C@H](CCC(=O)O)[C@H]1CC[C@H]2[C@H]3[C@@H](CC[C@]12C)[C@@]1(C)CC[C@@H](O)C[C@H]1C[C@@H]3O | inactive |
| COc1ccc(CNC(=O)c2oc3c(c2C)-c2nn(Cc4ccc(Cl)cc4)cc2CC3)cc1 | inconclusive: 25.1 µM [inhibitor, single point] |
| Nc1c(I)cc(I)c(C(=O)N(CCC(=O)O)c2ccccc2)c1I | inactive |
| CCc1ccc(C(=O)c2cn(Cc3ccc(F)cc3)c3cc(OC)c(OC)cc3c2=O)cc1 | inconclusive: 39.8 µM [inhibitor, single point] |
| CC(=O)c1cc(-c2ccc(F)cc2)n(CC(=O)Nc2cc(C)cc(C)c2)c1C | inconclusive: 10 µM [inhibitor, partial curve] |
| Cc1ccc(C(C)C)c(OCCSc2nc3ccccc3n2CC(O)CO)c1 (stereo not given) | inconclusive: 31.6 µM [inhibitor, single point] |
| CC(C)Cn1c(-c2ccc(S(=O)(=O)N3CCOCC3)cc2)csc1=Nc1cc(Cl)ccc1Cl | inconclusive: 1.58 µM [inhibitor, partial curve, poor fit] |
| O=C(NCc1ccco1)c1ccc2c(c1)N(Cc1ccc(Cl)cc1)C(=O)c1ccccc1S2 | inconclusive: 35.5 µM [inhibitor, partial curve, poor fit] |
| CCCN(CCC)C(=O)C1CCCN(c2ncnc3c2nc2n3CCCCC2)C1 (stereo not given) | inconclusive: 35.5 µM [inhibitor, single point] |
| Cc1ccccc1CNC(=O)c1ccc(CN2CC(=O)N3CCCCC3C2=O)cc1 (stereo not given) | inactive |
| CCc1nnc2c3ccccc3nc(N3CCN(c4cc(C)ccc4C)CC3)n12 | inconclusive: 2.51 µM [inhibitor, partial curve, poor fit] |
| Cc1ccc(NS(=O)(=O)c2c(C)nc3sc(C)cn3c2=O)c(C)c1 | inconclusive: 39.8 µM [inhibitor, single point] |
| CNCC[C@H](Oc1cccc2ccccc12)c1cccs1 | inactive and inconclusive: 1.72 µM [inhibitor, full curve] |
